Measured values taken from article PMC2887905 (BMC Research Notes, 2010).

Target: Recombinant HIV-1 gp120 (LAV, CXCR4 monotropic, identical to NL4-3 gp120, glycosylated) (HIV-1 (LAV; identical to NL4-3 gp120), glycosylated)
Experiment: SPR; LAV gp120 immobilised by NHS/EDC coupling on a CM5 sensor chip (3500-5000 RU), Biacore 1000, HBS-EP buffer, flow rate 5 μl/min for 6 min; proteins tested at 1, 5, 10, 25 and 50 μg/ml
Conditions: both partners purified

B1: mouse serum albumin, normal, non-modified (natural protein)
chain: not shown
response units: < 5 RU
